Measurements as given in US20150023967A1 (published 2015).

Experiments:
BCMA 101 x CD3 = experiment: SPR (Biacore)
BCMA 102 x CD3 = experiment: SPR (Biacore)

B1: Macaque BCMA (other)
chain (part 1 of 2): [… about 60 residues …]NASGGGGSEAHKSEIAHRYNDLGEQHFKGLVLIAFSQYLQKCSYDEHAKLVQEVTDFAKTCVADESAANCDKSLHTLFGDKLCAIPNLRENYGELADCCTKQEPERNECFLQHKDDNPSLPPFERPEAEAMCTSFKENPTTFMGHYLHEVARRHPYFYAPELLYYAEQYNEILTQCCAEADKESCLTPKLDGVKEKALVSSVRQRMKCSSMQKFGERAFKAWAVARLSQTFPNADFAEITKLATDLTKVNKECCHGDLLECADDRAELAKYMCENQATISSKLQTCCDKPLLKKAHCLSEVEHDTMPADLPAIAADFVEDQEVCKNYAEAKDVFLGTFLYEYSRRHPDYSVSLLLRLAKKYEATLEKCCAEANPPACYGTVLAEFQPLVEEPKNLVKTNCDLYEKLGEYGFQNAILVRYTQKAPQVSTPTLVEAARNLGRVGTKCCTLPEDQRLPCVEDYLSAILNRVCLLHEKTPVSEHVTKCCSGSLVERRPCFSALTVDETYVPKEFKAETFTFHSDICTLPEKEKQIKKQTALAELVKHKPKATAEQLKTVMDDFAQFLDTCCKAADKDTCFSTEGPNLVTRCKDALA
chain (part 2 of 2): SGHHGGHHGGHH
Kd (BCMA 101 x CD3): 800 pM
Kd (BCMA 102 x CD3): 300 pM
